Test results reported in US7316989B2 (priority 2001, dated 2008).

Assays:
[1] = tested on: melon dead arm fungus (Fusarium oxysporum f. sp. melonis race 2); experiment: Melon Fusarium wilt control test; details: melon (Ams) submerged 10 hr, 20 ppm in terms of cerebroside B; disease development of roots 21 days after inoculation
From the text: Melon plants (variety: Ams) (third- or fourth-leaf (true leaf) developed) were submerged in each test liquid for 10 hr. Thereafter, conidia of melon dead arm fungus (Fusarium oxysporum f. sp. melonis race 2) cultured in a potato-dextrose medium were inoculated by drenching.
This effect is considered attributable to the fact that the penetration transfer of the cerebroside as the active ingredient into the plant body can be enhanced by the spreading effect of the liposoluble substance contained in the disease resistance-inducing composition of the present invention upon application.

[2] = tested on: rice (variety: Akitakomachi); set-up: key: ◯: normal; X: water-repellent; details: in vivo; rice leaves after application of liquid diluted to 10 ppm in terms of cerebroside B
From the text: Concentrates with respective concentrations provided in the course of the preparation of ethanol extract concentrate A in Example 1, and a solution obtained by further concentrating extract concentrate A were examined for the liposoluble substance content, the cerebroside B content, and the control effect for rice blast. For the concentrations of the individual concentrates, the ethanol extract after the completion of the extraction step was regarded as a one-fold diluted solution, and the ratio of the amount of the liquid after the completion of the extraction to the amount of the liquid after each concentration operation in the concentration/separation step was regarded as the concentration ratio. In this way, 1-, 2-, 5-, 10-, 20-, 30-, and 50-fold diluted solutions were provided for the test. The liposoluble substance content was expressed in terms of an n-hexane extract. Further, for the individual liquids, the spreadability of the testing liquids, state of the liquids upon dilution, the state of the foliar surface as the level of physiological disorder of the liquid applied leaves were compared.
To examine the disease control effect, an evaluation test was carried out by the following method. […]

CCCCCCCCCCCCCC[C@@H](O)C(=O)N[C@@H](CO[C@@H]1O[C@H](CO)[C@@H](O)[C@H](O)[C@H]1O)[C@H](O)/C=C/CC/C=C(\C)CCCCCCCCC [cerebroside B, (4E,8E)-N-D-2′-hydroxypalmitoyl-1-O-β-D-glucopyranosyl-9-methyl-4,8-sphingadienine]
Protective value [1]: 52
State of foliar surface [2]: ◯
